± gives the standard deviation. In all, about 6,600 sequences were measured (“pre-steady-state target cleavage rate”: median about 0.07, highest 2% from about 0.72 on). The entries are a selection whose mix differs from that of the whole data set.
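Further: 1 nM active piRISC with 0.1 nM target library at 33 °C single turnover.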

In the assay the test system is MIWI (PIWIL1) piRISC loaded with Kctd7 piRNA (30 nt). Briefly: pre-steady-state target cleavage rate (min^-1); MIWI and MILI are mouse PIWI proteins and EfPiwi is from a freshwater sponge; tags in brackets are library labels; higher = faster piRNA-guided slicing of the target. The conditions noted are these: guide: Kctd7 piRNA 5'p-UGUUAAUCUCUCAGAGAAGGUGACAGUGAU; auxiliary factor: 500 nM mouse GTSF1. The essentials: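 In this Cleave-'n-Seq assay, uncleaved targets were sequenced and normalised to depth and to weakly complementary targets. They came from a transcribed, DNA-blocked target RNA library […] mixed with 1 nM active affinity-purified piRISC carrying one synthetic guide, with or without 500 nM GTSF1 partner protein, in HEPES–potassium acetate buffer at 33 °C for 0–8 or 0–960 min. After three trials were pooled and k3 was capped at 0.0001 min^-1, the pre-steady-state cleavage rate was obtained from a burst-and-steady-state fit.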
With UAGACUGAGACCUUCUCUGAGAGAUUAACA, the “pre-steady-state target cleavage rate” value came out at 0.461 ± 0.023.

In the case of UAGUGUGUCACCUUCUCUGUGAGAUUAAGA, the “pre-steady-state target cleavage rate” value worked out at 0.064 ± 0.011.

On to UAGUCUCUCACCUUCUCUCAGAGAUUAACA, for which the “pre-steady-state target cleavage rate” value amounted to 0.0673 ± 0.0062.

As for AUCACUGUCACUUCUCUGAGAGAUUAACA, the “pre-steady-state target cleavage rate” value was 0.628 ± 0.044.

AUCACUGUCACCAUCUCUGAGAGAUAAACA: the “pre-steady-state target cleavage rate” value stood at 0.31 ± 0.03.

Turning to UAGUGACACACCUUCUCUGAGAGAAUAUCA, the “pre-steady-state target cleavage rate” value is 0.0155 ± 0.0077.

With UAGUCUUCACCUUCUCUGAGAGAUUAACA, the “pre-steady-state target cleavage rate” value is 0.605 ± 0.027.

Take UACACUGUCACCUUCUCUGAGAGAUAAACA: the “pre-steady-state target cleavage rate” value was found to be 0.331 ± 0.036.

Take UAGUCUGUCACCUUCUCUCAGACAUUAACA: the “pre-steady-state target cleavage rate” value amounted to 0.0585 ± 0.0064.

As for UUCACUGUCAGGUUCUCUGAGAGAUUAAGA, the “pre-steady-state target cleavage rate” value was found to be 0.0711 ± 0.014.

For UUCACUGUCACCUUGUCUGAGAGAUAUUGA, the “pre-steady-state target cleavage rate” value is 0.351 ± 0.097.

For UAGUCUGUCACCUUCUCUGAGUGUUUAACA, the “pre-steady-state target cleavage rate” value amounted to 0.0499 ± 0.008.

On to AUCACUGUCACCAUGUCUGAGAGAUUAACA, for which the “pre-steady-state target cleavage rate” value came out at 0.253 ± 0.021.

Take UAGUGACAGUGCUCCUCUGAGAGAUUAACA: the “pre-steady-state target cleavage rate” value came out at 0.00949 ± 0.0021.

Regarding UAGACUGUCACCUACUCUCAGAGAUUAACA, the “pre-steady-state target cleavage rate” value was 0.0399 ± 0.0041.

Turning to UAGACUGUCACCUUCUCUGAGAGAUGUAACA, the “pre-steady-state target cleavage rate” value was found to be 0.419 ± 0.047.

Turning to UAGUGACAGACCUUCUUUGAGAGAUUAACA, the “pre-steady-state target cleavage rate” value came out at 0.0159 ± 0.0058.

For the sequence UAGUGACUCACCUUGUCUGACAGAUUAACA, the “pre-steady-state target cleavage rate” value was found to be 0.153 ± 0.017.

For the sequence UAGUCUGUCACCUUCUCCGAGAGAUUAACA, the “pre-steady-state target cleavage rate” value worked out at 0.365 ± 0.057.

As to UAGUGUGUCACCUUCAUCUGAGAGAUUAACA, the “pre-steady-state target cleavage rate” value came to 0.0703 ± 0.015.

With UAGUGUCAGACCUUCUCUGAGAGAUUAACA, the “pre-steady-state target cleavage rate” value amounted to 0.195 ± 0.02.

As to UAGUGACACACCUCUCUGAGAGAUUAACA, the “pre-steady-state target cleavage rate” value came to 0.0282 ± 0.0063.

Turning to UAGUGUGUCACCUUCUCUAGAGAGAUUAACA, the “pre-steady-state target cleavage rate” value turned out to be 0.015 ± 0.0071.

For UAGACUCUCACCUUCUCAGAGAGAUUAACA, the “pre-steady-state target cleavage rate” value was 0.25 ± 0.019.

Turning to AUCACUGUCACCUUCUCUGACAGAUUAUCA, the “pre-steady-state target cleavage rate” value came to 0.0262 ± 0.0092.

For the sequence AUGUGUGUCACCUUCUCUGAGAGAUUAUGA, the “pre-steady-state target cleavage rate” value was determined as 0.118 ± 0.022.

Take AUCACUGUGACCUUCUCUGAGAGAUUUACA: the “pre-steady-state target cleavage rate” value is 0.361 ± 0.043.

Turning to UAGUCUGUGACCUUCUCUGAGUGAUUAACA, the “pre-steady-state target cleavage rate” value worked out at 0.0247 ± 0.0042.

Consider UAGUGACAGUCCUCUCUCUGAGAGAUUAACA, for which the “pre-steady-state target cleavage rate” value was found to be 0.16 ± 0.018.

In the case of UAGUGACAGUGGAAGACUGAGAGAGUUAACA, the “pre-steady-state target cleavage rate” value was < 0.0001.

As to UAGUGACACACCUUCUCUAAGAGAUUAACA, the “pre-steady-state target cleavage rate” value was found to be 0.211 ± 0.014.

In the case of AUCACUGUCACCUUCUCUGACAGAUUAUGA, the “pre-steady-state target cleavage rate” value came out at 0.0118 ± 0.0057.

Consider UACACUGUCACCUUCAUCUGAGAGAUUAACA, for which the “pre-steady-state target cleavage rate” value is 0.205 ± 0.046.

As for AUCUGUGUCACCUUCUCUGAGAGAUUAACA, the “pre-steady-state target cleavage rate” value came out at 0.417 ± 0.025.

For UAGUGACACACCAUCUCUGAGAGAUUAUCA, the “pre-steady-state target cleavage rate” value was found to be 0.0889 ± 0.013.

On to UAGUGACACACCUUCUCUGUGAGAUUAUGA, for which the “pre-steady-state target cleavage rate” value is 0.00909 ± 0.0027.

Take UAGUGACUCACCUUCUCUGAGAGUUUUUGA: the “pre-steady-state target cleavage rate” value was found to be 0.00432 ± 0.0039.

As for AUCACUGUCACCUUCUCUGAGAGAUUAAUCA, the “pre-steady-state target cleavage rate” value came to 0.381 ± 0.04.

As to UACACUGUCACCUUCUCUGAGACGAUUAACA, the “pre-steady-state target cleavage rate” value turned out to be 0.0233 ± 0.0046.

On to UAGUCUGUCACCUUCUCUGAGAGAUUAAGCA, for which the “pre-steady-state target cleavage rate” value turned out to be 0.18 ± 0.024.

As to UACACUGUCACCUUCACUGAGAGAUUAUGA, the “pre-steady-state target cleavage rate” value is 0.104 ± 0.029.

In the case of UUCACUCUCUCCUUCUCUGAGAGAUUAACA, the “pre-steady-state target cleavage rate” value came to 0.398 ± 0.027.

As for UAGUCUGUCACCUUCACUGUGAGAUUAACA, the “pre-steady-state target cleavage rate” value came to 0.139 ± 0.0065.

On to UAGUGUGGCACCUUCUCUGAGAGAUUAACA, for which the “pre-steady-state target cleavage rate” value was 0.243 ± 0.058.

On to UAGUGUGUCACCUUCCUCUGAGAGAUUAACA, for which the “pre-steady-state target cleavage rate” value was 0.284 ± 0.024.

As for UAGUGACUCAGCUUCUCUGAGAGAUUAUCA, the “pre-steady-state target cleavage rate” value stood at 0.0496 ± 0.0071.

In the case of UAGUGACUCACCUUCUCUGAGAGUUUAACA, the “pre-steady-state target cleavage rate” value amounted to 0.386 ± 0.07.

In the case of UACACUGUCACCUUCUGAGAGAGAUUAUGA, the “pre-steady-state target cleavage rate” value is 0.0105 ± 0.0071.

In the case of UACUCUGUCACCUUCUCAGAGAGAUUAACA, the “pre-steady-state target cleavage rate” value is 0.313 ± 0.026.

As for AUCACUGUCACCUUCUCUGAGAGAUUACCA, the “pre-steady-state target cleavage rate” value was determined as 0.229 ± 0.04.

As to UAGACUGUCACCUUCUCUGAGAGAAUAUCA, the “pre-steady-state target cleavage rate” value is 0.0088 ± 0.004.

On to UUCACAGUCACCUUCUCUGACAGAUUAACA, for which the “pre-steady-state target cleavage rate” value is 0.515 ± 0.031.

Turning to UUCACUGACACCUUCUCAGAGAGAUUAACA, the “pre-steady-state target cleavage rate” value came out at 0.252 ± 0.016.

For UAGUGACACACCGUCUCUGAGAGAUUAACA, the “pre-steady-state target cleavage rate” value stood at 0.443 ± 0.03.

AUCACUGUCACCUUCUCUGUGAGAUUUUGA: the “pre-steady-state target cleavage rate” value amounted to 0.0412 ± 0.013.

With UAGUGACACACCUUCUCUGAGACAUUUACA, the “pre-steady-state target cleavage rate” value was found to be 0.00651 ± 0.003.

On to AUCACUGUCACCUUCGUCUGAGAGAUUAACA, for which the “pre-steady-state target cleavage rate” value was 0.212 ± 0.04.

Consider UAGUGACACACCUUCUCUGAGAGAUUUUGA, for which the “pre-steady-state target cleavage rate” value came to 0.0134 ± 0.005.

As for UAGUGUGUCACCUUCUCUGAGUGAUUAAGA, the “pre-steady-state target cleavage rate” value was 0.0052 ± 0.004.

For UACACUGAGACCUUCUCUGAGAGAUUAUGA, the “pre-steady-state target cleavage rate” value stood at 0.0374 ± 0.015.

As for UACACUGUCUACCUUCUCUGAGAGAUUAACA, the “pre-steady-state target cleavage rate” value came out at 0.149 ± 0.013.

For the sequence UAGUGACAGUCCUUCUCUGAGAGAUUCAACA, the “pre-steady-state target cleavage rate” value is 0.0144 ± 0.003.

Consider AUCUCUGUCACCUUCUCUGAGAGAUUAUCA, for which the “pre-steady-state target cleavage rate” value is 0.181 ± 0.031.

UAGUCUGUCAGCUUCUCUGAGAGAUUAACA: the “pre-steady-state target cleavage rate” value is 0.453 ± 0.023.

Take UAGUGACAGACCUUCUCUGAGAGAUUAAACA: the “pre-steady-state target cleavage rate” value amounted to 0.109 ± 0.017.

In the case of UUCUCUGUCACCUUCUCUGAGAGAUUUUGA, the “pre-steady-state target cleavage rate” value was determined as 0.105 ± 0.024.

Regarding UACACUCACACCUUCUCUGAGAGAUUAUGA, the “pre-steady-state target cleavage rate” value is 0.0541 ± 0.015.

Turning to UAGUGUGUCACCUUCUCUGAGGAGAUUAACA, the “pre-steady-state target cleavage rate” value amounted to 0.00856 ± 0.0052.

For the sequence AUCACUGUCACCUUCUCUGAGAGAUUAACCA, the “pre-steady-state target cleavage rate” value was found to be 0.603 ± 0.042.

In the case of UAGUGACACACCUUCUCUGUGAGAUUAAGA, the “pre-steady-state target cleavage rate” value worked out at 0.0284 ± 0.008.

For UUCACUGUCACCUUCUCCUGAGAGAUUAACA, the “pre-steady-state target cleavage rate” value turned out to be 0.795 ± 0.21.

In the case of UAGUGACAGUCCUUCUCUGUGAGAUUAUCA, the “pre-steady-state target cleavage rate” value turned out to be 0.00744 ± 0.002.

The values above are taken from the supplement of paper PMC10338343.
